In PubChem BioAssay (NCATS):
The inconclusive results got no clear call from the source; some entries with a clear call stand among them for comparison. Where a call stands in place of a potency, no number is given. Potencies beside an inconclusive call are fits to weak or partial responses and may not hold up. The source holds several records for some structures; these can differ, active in one and inactive in another. Activity calls are given as the source filed them. The call rests on the fitted dose curve; in most records, active means well fitted cell-killing curve with a large enough effect; inconclusive means small, poorly fitted or top-dose-only effect; inactive means flat fitted curve, though single readings scatter.

Assay: qHTS of pediatric cancer cell lines to identify multiple opportunities for drug repurposing: Primary screen for BT-37 cells (AID 1347094)
Details: BT-37 viability, CellTiter-Glo luminescence, 48 h; series mostly up to 57.3 µM
Procedure, shortened: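 ATP-based luminescence (CellTiter-Glo) quantifies viability after a 48-hour exposure. Compounds are dosed across 8 or 11 final concentrations; DMSO and 2.3 µM bortezomib serve as controls.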
Potency means the concentration at half of the fitted maximal effect; tags describe the fitted curve by direction and shape.

Row | SMILES | Potency
1 | CC1CC2C3CCC4=CC(=O)C=C[C@]4(C)[C@@]3(F)[C@@H](O)C[C@]2(C)[C@@]1(O)C(=O)CO (some centres not stated) | inactive
2 | N[C@@]1(C(=O)O)CS(=O)(=O)[C@H]2[C@H](C(=O)O)[C@H]21 | inconclusive: 30.6 µM [cytotoxic, single point]
3 | CC[C@H]1OC(=O)[C@H](C)[C@@H](O[C@H]2C[C@@](C)(OC)[C@@H](O)[C@H](C)O2)[C@H](C)[C@@H](O[C@@H]2O[C@H](C)C[C@H](N(C)C)[C@@H]2O)[C@](C)(OC)C[C@@H](C)C(=O)[C@H](C)[C@@H](O)[C@]1(C)O | inactive
4 | CCN(CC)CCOc1ccc(C(=C(Cl)c2ccccc2)c2ccccc2)cc1 | inactive
5 | Cc1cc(C(=O)NOCCO)c(Nc2ccc(I)cc2F)n(C)c1=O | inconclusive: 0.344 µM [cytotoxic, partial curve, poor fit]
6 | Nc1nc2c(ncn2COCCO)c(=O)[nH]1 | inactive
7 | CCN(CCO)CCCC(C)Nc1ccnc2cc(Cl)ccc12 (configuration not stated) | active: 3.85 µM
